Measured values taken from PubChem BioAssay AID492949 (National Center for Advancing Translational Sciences (NCATS), 2010).
Inconclusive results, whose numbers are uncertain, are shown with a selection of clear calls. A potency beside an inconclusive call is a rough fit, not a confirmed value. Active and inactive are the calls of the source. The call rests on the fitted dose curve; in most records, active means well fitted activation curve with a large enough effect; inconclusive means small, poorly fitted or top-dose-only effect; inactive means no such curve, though single readings can be large or run the other way.

What follows are compounds tested against Relaxin receptor 1 (Homo sapiens) (UniProt Q9HBX9) (assay: qHTS Assay for Agonists of the Relaxin Receptor RXFP1: THP1 Hit Validation). Details: THP1-RXFP1 cells, cAMP TR-FRET, 30 min; series mostly up to 115 µM.
Sequence of UniProt Q9HBX9 (Q9HBX9 whole entry, looked up): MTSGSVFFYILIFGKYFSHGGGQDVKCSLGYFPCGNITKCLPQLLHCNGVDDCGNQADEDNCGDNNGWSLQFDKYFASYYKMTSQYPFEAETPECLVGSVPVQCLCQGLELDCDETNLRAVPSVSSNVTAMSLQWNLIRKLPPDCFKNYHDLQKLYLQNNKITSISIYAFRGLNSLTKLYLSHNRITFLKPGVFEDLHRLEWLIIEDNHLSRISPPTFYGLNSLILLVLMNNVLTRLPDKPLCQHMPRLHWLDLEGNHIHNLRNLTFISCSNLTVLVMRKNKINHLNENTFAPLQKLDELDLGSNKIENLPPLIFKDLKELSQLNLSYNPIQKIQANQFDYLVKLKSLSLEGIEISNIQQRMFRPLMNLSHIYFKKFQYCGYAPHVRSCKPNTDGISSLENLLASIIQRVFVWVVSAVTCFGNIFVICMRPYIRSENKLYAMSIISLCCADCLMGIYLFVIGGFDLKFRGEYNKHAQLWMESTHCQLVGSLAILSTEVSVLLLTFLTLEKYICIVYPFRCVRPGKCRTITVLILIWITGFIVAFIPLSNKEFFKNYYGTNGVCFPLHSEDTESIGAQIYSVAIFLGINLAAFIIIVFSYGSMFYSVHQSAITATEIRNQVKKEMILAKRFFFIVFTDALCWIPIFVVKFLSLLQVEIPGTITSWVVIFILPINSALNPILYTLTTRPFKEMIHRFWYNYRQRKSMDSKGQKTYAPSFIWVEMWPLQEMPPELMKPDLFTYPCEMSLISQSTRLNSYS
Method in brief: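 RXFP1-THP1 cells, 2000/well, + Ro 20174 (PDE4 inhib.); cpd 30 min 37C. Lysis + cAMP-d2/anti-cAMP cryptate, 30 min RT, HTRF 665/615. Norm: buffer vs 29 nM porcine relaxin; Hill EC50.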
Further: nearly all actives have a fitted effect of over 60% in size.
Potency means the concentration at half of the fitted maximal effect; tags describe the fitted curve by direction and shape.

SMILES | Potency
COc1ccc(/C=C2/SC(=O)N(CC(=O)Nc3cc(C)on3)C2=O)cc1OC | inactive
N=c1c(C(=O)NC2CCCCC2)cc2c(=O)n3ccccc3nc2n1CC1CCCO1 (stereo not drawn) | inconclusive: 13.8 µM [activator, full curve, poor fit]
O=C(O)CSc1ccnc2cc(Cl)ccc12 | active: 21.8 µM
CCS(=O)(=O)c1nc(S(=O)(=O)c2ccc(C)cc2)c(N2CCN(C)CC2)s1 | inconclusive: 30.9 µM [activator, partial curve]
CC(=O)C1C(c2ccccc2)c2c(noc2C)CC1(C)O (stereo not drawn) | inactive
O=C(O)CCNc1ccc(NCCC(=O)O)c2c1C(=O)c1ccccc1C2=O | inactive
CCc1cc2c(=O)nc3n(c2s1)Cc1ccccc1/C3=C(/O)c1cccc([N+](=O)[O-])c1 | active: 0.87 µM
CCCC(=O)Nc1ncnc2c1ncn2[C@@H]1O[C@@H]2COP(=O)(O)O[C@H]2[C@H]1OC(=O)CCC | active: 1.23 µM
Cn1c(=O)c2sccc2n2c(CCCC(=O)NCc3cccnc3)nnc12 | inconclusive: 4.36 µM [activator, full curve, poor fit]
Cc1ccc(-c2ccc3nnc(SCC(=O)NCC4CCCO4)n3n2)cc1 (stereo not drawn) | inactive
Cc1cccc(C(=O)Nc2ccccc2C(=O)NCc2ccco2)c1 | inactive
Cn1c(=O)c2c(ncn2CC(=O)N/N=C/c2cn[nH]c2-c2ccc(F)cc2)n(C)c1=O | inconclusive: 7.76 µM [activator, full curve]
Cn1c2ccccc2c2nnc(SCCN3CCOCC3)nc21 | inconclusive: 38.9 µM [activator, partial curve]
